# Out of some 220,000 compounds screened, about 16,000 (7.3%) were called active. The inconclusive results got no clear call from the source; some entries with a clear call stand among them for comparison. Calls come from the whole dose curve; as a rule, active = well fitted inhibition curve with a large enough effect (not every such curve was filed as active); inconclusive = small, poorly fitted or top-dose-only effect, or another doubt; inactive = no such curve, though single readings can be large or run the other way. Potencies of inconclusive entries are left out as doubtful fits.
# Target: Aldehyde dehydrogenase 1A1 (Homo sapiens) (UniProt P00352)
# Sequence of UniProt P00352 (P00352 whole entry, looked up): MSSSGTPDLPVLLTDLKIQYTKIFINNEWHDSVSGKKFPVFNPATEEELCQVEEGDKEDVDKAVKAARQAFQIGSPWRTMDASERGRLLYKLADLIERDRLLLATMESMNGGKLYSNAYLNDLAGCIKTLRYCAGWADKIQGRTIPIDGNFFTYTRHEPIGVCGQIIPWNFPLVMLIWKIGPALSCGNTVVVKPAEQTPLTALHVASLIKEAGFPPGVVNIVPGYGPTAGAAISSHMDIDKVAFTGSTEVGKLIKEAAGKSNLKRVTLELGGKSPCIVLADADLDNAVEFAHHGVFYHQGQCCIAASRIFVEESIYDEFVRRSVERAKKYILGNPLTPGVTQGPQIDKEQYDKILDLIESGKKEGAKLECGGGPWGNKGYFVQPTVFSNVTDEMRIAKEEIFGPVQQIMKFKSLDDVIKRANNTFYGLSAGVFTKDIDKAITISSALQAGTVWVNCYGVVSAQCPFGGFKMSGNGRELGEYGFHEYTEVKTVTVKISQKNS
# Test: qHTS Assay for Inhibitors of Aldehyde Dehydrogenase 1 (ALDH1A1)
# Conditions: Purified ALDH1A1, NADH fluorescence, propionaldehyde substrate; series mostly up to 75.3 µM
# Potency is the fitted concentration of half-maximal effect; tags give direction and shape of the fitted curve.
row,Structure (SMILES),Potency
1,O=C(Cc1c[nH]c2ccccc12)NCc1ccc(Cl)cc1Cl,inactive
2,Cn1ccnc1Sc1nc(Nc2cccc(Cl)c2)nc(N2CCOCC2)n1,"inconclusive [inhibitor, partial curve, poor fit]"
3,Cc1ccc(Nc2c([N+](=O)[O-])cc(C(=O)N3CC(=O)Nc4ccccc43)cc2[N+](=O)[O-])c(C)c1,inactive
4,CN1C(=O)c2cccc(NC(=O)C3CCCCC3)c2C1=O,"inconclusive [inhibitor, partial curve]"
5,O=C(CC1Sc2ncnn2C1=O)Nc1ccc(Br)cc1 (configuration not stated),active: 7.94 µM
6,Cc1ccc(-c2nnn(CCC(=O)NC3CCCC3)n2)cc1,"inconclusive [inhibitor, single point]"
7,CC1=NN(c2ccc(C(=O)O)cc2)C(=O)/C1=C\c1ccc(OC(=O)c2cccs2)cc1,active: 2.24 µM
8,CCOc1ccc2nc(SCC(=O)Nc3cc4c(cc3C(C)=O)OCO4)[nH]c2c1,active: 25.1 µM
9,O=C(CNS(=O)(=O)c1ccc(C(=O)N2CCCCC2)cc1)N1CCCCC1,"inconclusive [inhibitor, single point]"
10,N=C(CC1CC(=O)NC(=O)C1)C1=C(O)CCCC1=O,inactive
11,O=C(NCCc1ccccc1)C1CCN(S(=O)(=O)c2ccc(-c3nn[nH]n3)cc2)CC1,"inconclusive [inhibitor, single point]"
12,COc1cc(CNc2ccc(N3CCN(C(C)=O)CC3)cc2)ccc1OCc1ccccc1,active: 17.8 µM
13,Cc1cc(NC(=O)COc2ccccc2)n(-c2ccccc2)n1,"inconclusive [inhibitor, single point]"
14,Cc1c(/C=N/NC(=O)c2ccc(Br)o2)cnn1C,"inconclusive [inhibitor, single point]"
15,CC(C)(C)c1ccc(Oc2ccc(N)cc2)cc1,"inconclusive [inhibitor, single point]"
16,O=[N+]([O-])c1ccc2nc(-c3ccc(Cl)cc3)[nH]c2c1,"inconclusive [inhibitor, partial curve]"
17,COc1ccc2cc(CN(CCO)C(=O)c3ccccc3F)c(=O)[nH]c2c1,"inconclusive [inhibitor, partial curve]"
18,Cc1ccc(C)c(NS(=O)(=O)c2cc(Br)cnc2N)c1,"inconclusive [inhibitor, single point]"
19,CN1C(=O)/C(=N\OC(=O)c2ccccc2Cl)c2ccccc21,"inconclusive [inhibitor, partial curve]"
20,COc1ccc2cc(/C(C)=N/NC(=S)Nc3cc(S(=O)(=O)N4CCOCC4)ccc3N3CCOCC3)ccc2c1,"inconclusive [inhibitor, partial curve]"
21,CCOC(=O)c1c(NC(=O)CS(=O)(=O)c2cn(CC)c3ccccc23)sc2c1CCCC2,active: 12.6 µM
22,O=C(CSCc1ccccc1)Nc1ccc(F)cc1F,active: 23.8 µM
23,CC(C)N=C(NC#N)SCc1ccc(Br)cc1,"inconclusive [inhibitor, partial curve]"
24,CCOC(=O)c1[nH]c2c(c1-c1ccccc1)C(=O)CC(c1ccc(OCC)cc1)C2 (configuration not stated),inactive

row,Structure (SMILES),Potency
1,COc1ccc(N(CC(=O)Nc2cccc(N(C)S(C)(=O)=O)c2)S(=O)(=O)c2ccc(C)cc2)cc1,"inconclusive [inhibitor, partial curve]"
2,CCCn1cc(SCC(=O)Nc2nnc(C)s2)c2ccccc21,"inconclusive [inhibitor, single point]"
3,O=C(NCc1ccccc1)C1=C[C@@H](c2ccccc2)C[C@@H](OCc2ccc(CO)cc2)O1,active: 31.6 µM
4,O=C(COc1ccccc1Cl)NCCC1=CCCCC1,"inconclusive [inhibitor, single point]"
5,COc1ccc(CCN2C(=O)CC(NCCc3ccc(S(N)(=O)=O)cc3)C2=O)cc1OC (configuration not stated),active: 10 µM
6,O=c1[nH]c2c(s1)C(c1ccccc1)C1C3CCC(C3)C1S2 (configuration not stated),active: 20 µM
7,O=C(c1cnn(-c2nc3ccccc3s2)c1)c1ccccc1O,inactive
8,O=C(COC(=O)c1ccccn1)Nc1cccc2ccccc12,"inconclusive [inhibitor, single point]"
9,CC(C)N(C(=O)c1ccccc1-c1ccccc1)C(C)C,inactive
10,Cc1ccc(OCC(=O)NCCc2c[nH]c3ccccc23)cc1,inactive
11,CSc1nc2ccc(S(=O)(=O)NC3CCCCC3)cc2s1,"inconclusive [inhibitor, single point]"
12,Cc1cc(-n2c(C)cc(C(=O)CSc3ccc4c(c3)OCCO4)c2C)no1,inactive
13,O=C(NCCSCc1ccco1)Nc1cccc(Cl)c1,"inconclusive [inhibitor, single point]"
14,COc1cccc(CNCCOCCO)c1OC,"inconclusive [inhibitor, single point]"
15,CC1CCCN(S(=O)(=O)c2ccc(S(=O)(=O)NC(C)c3cccs3)cc2)C1 (configuration not stated),active: 37.7 µM
16,Cc1cc(C(=O)Nc2ccc(OCc3ccccc3)cc2)c(C)o1,"inconclusive [inhibitor, partial curve]"
17,COc1ccc(OC)c2[nH]c(=O)c(CCNS(=O)(=O)c3ccccc3)cc12,active: 7.08 µM
18,CCOC(=O)CNC(=O)CSc1ncnc2c1cnn2-c1ccc(OC)cc1,inactive
19,O=C(N/N=C/c1ccccc1OC(=O)c1ccc2c(c1)OCO2)c1ccccc1,"inconclusive [inhibitor, single point]"
20,CCN(CC)c1ccc(/C=N/NC(=O)CNC(=O)c2ccccn2)cc1,"inconclusive [inhibitor, single point]"
21,Cc1ccc(Oc2cnc3ccccc3n2)cc1,"inconclusive [inhibitor, single point]"
22,COc1cc(/C=C/C(=O)OCC(=O)Nc2ccccc2Cl)cc(OC)c1OC,"inconclusive [inhibitor, partial curve]"
23,CC(=O)OCC1OC(C#CC2=CCCCC2)C=CC1OC(C)=O (configuration not stated),"inconclusive [inhibitor, single point]"

# From PubChem BioAssay AID1030 (National Center for Advancing Translational Sciences (NCATS), 2008)
